In the supplement of paper PMC4604168 (melanoma cell lines):
The list shows a part of the results. Many values rest on one well or one pass, so single values are uncertain.

Tests used:
Test in all cases: cell count relative to DMSO control; melanoma cells; higher = more viable cells
Details in all cases: library dose: low library concentration; 72 h
COLO792 = test system: COLO792
COLO800 = test system: COLO800
COLO829 = test system: COLO829
G361 = test system: G361
IPC-298 = test system: IPC-298
IST-MEL1 = test system: IST-MEL1
LB2518-MEL = test system: LB2518-MEL
LOXIMVI = test system: LOXIMVI
MEL-HO = test system: MEL-HO
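Also: cell number obtained by counting DAPI-stained nuclei in high-throughput microscope images with image analysis software, screen run in 1,536-well plates.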

CC[C@]1(O)C[C@H]2CN(CCc3c([nH]c4ccccc34)[C@@](C(=O)OC)(c3cc4c(cc3OC)N(C=O)[C@H]3[C@@](O)(C(=O)OC)[C@H](OC(C)=O)[C@]5(CC)C=CCN6CC[C@]43[C@@H]65)C2)C1 [vincristine] + Cc1ccc(NC(=O)c2cccc(N(C)C)c2)cc1NC(=O)c1ccc(O)cc1 [ZM336372] (first compound 0.0001 µM, partner dose 2 µM)
cell count (COLO792): 120% | cell count (COLO800): 96.9% | cell count (COLO829): 80.7% | cell count (G361): 96.6% | cell count (IPC-298): 84.3% | cell count (IST-MEL1): 88.2% | cell count (LB2518-MEL): 79% | cell count (LOXIMVI): 186% | cell count (MEL-HO): 83.8%

N#CC[C@H](C1CCCC1)n1cc(-c2ncnc3[nH]ccc23)cn1 [ruxolitinib] + O=c1cc(-c2cccc3c2Sc2ccccc2S3)oc(N2CCOCC2)c1 [KU55933] (first compound 1 µM, partner dose 1 µM)
cell count (COLO792): 100% | cell count (COLO800): 50.8% | cell count (COLO829): 117% | cell count (G361): 103% | cell count (IPC-298): 105% | cell count (IST-MEL1): 107% | cell count (LB2518-MEL): 134% | cell count (LOXIMVI): 101% | cell count (MEL-HO): 101%

CC[C@]1(O)C[C@H]2CN(CCc3c([nH]c4ccccc34)[C@@](C(=O)OC)(c3cc4c(cc3OC)N(C=O)[C@H]3[C@@](O)(C(=O)OC)[C@H](OC(C)=O)[C@]5(CC)C=CCN6CC[C@]43[C@@H]65)C2)C1 [vincristine] + CN(C)S(=O)(=O)c1ccc2c(c1)/C(=C/c1cc3c([nH]1)CCCC3)C(=O)N2 [SU6656] (first compound 0.0001 µM, partner dose 0.4 µM)
cell count (COLO792): 95.2% | cell count (COLO800): 84.8% | cell count (COLO829): 63.5% | cell count (G361): 84.7% | cell count (IPC-298): 98.4% | cell count (IST-MEL1): 95.4% | cell count (LB2518-MEL): 102% | cell count (LOXIMVI): 70.8% | cell count (MEL-HO): 108%

Cc1cc(Nc2cc(N3CCN(C)CC3)nc(Sc3ccc(NC(=O)C4CC4)cc3)n2)n[nH]1 [Tozasertib] + CCc1ccc(CCOc2ccc(CC3SC(=O)NC3=O)cc2)nc1 [pioglitazone] (first compound 0.006 µM, partner dose 2 µM)
cell count (COLO792): 109% | cell count (COLO800): 97.1% | cell count (COLO829): 85.4% | cell count (G361): 87.5% | cell count (IPC-298): 93.5% | cell count (IST-MEL1): 102% | cell count (LB2518-MEL): 104% | cell count (LOXIMVI): 90.8% | cell count (MEL-HO): 80.1%

N#CC[C@H](C1CCCC1)n1cc(-c2ncnc3[nH]ccc23)cn1 [ruxolitinib] + CN(NC(=O)CC(=O)NN(C)C(=S)c1ccccc1)C(=S)c1ccccc1 [STA4783] (first compound 1 µM, partner dose 0.006 µM)
cell count (COLO792): 68.8% | cell count (COLO800): 81.2% | cell count (COLO829): 80.1% | cell count (G361): 88.4% | cell count (IPC-298): 104% | cell count (IST-MEL1): 78.7% | cell count (LB2518-MEL): 88.5% | cell count (LOXIMVI): 109% | cell count (MEL-HO): 93.2%

Cc1cc(Nc2cc(N3CCN(C)CC3)nc(Sc3ccc(NC(=O)C4CC4)cc3)n2)n[nH]1 [Tozasertib] + COc1ccc(-c2ccc3c(N4CCOCC4)nc(N4C[C@@H](C)O[C@@H](C)C4)nc3n2)cc1CO [KU0063794] (first compound 0.006 µM, partner dose 0.02 µM)
cell count (COLO792): 78% | cell count (COLO800): 106% | cell count (COLO829): 87.1% | cell count (G361): 108% | cell count (IPC-298): 97% | cell count (IST-MEL1): 99.8% | cell count (LB2518-MEL): 91% | cell count (LOXIMVI): 126% | cell count (MEL-HO): 95.1%

CC[C@]1(O)C[C@H]2CN(CCc3c([nH]c4ccccc34)[C@@](C(=O)OC)(c3cc4c(cc3OC)N(C=O)[C@H]3[C@@](O)(C(=O)OC)[C@H](OC(C)=O)[C@]5(CC)C=CCN6CC[C@]43[C@@H]65)C2)C1 [vincristine] + Oc1cc(-c2nc(-c3ccccc3)[nH]c2-c2ccncc2)ccc1Cl [L779450] (first compound 0.0001 µM, partner dose 0.2 µM)
cell count (COLO792): 102% | cell count (COLO800): 105% | cell count (COLO829): 96.3% | cell count (G361): 97.9% | cell count (IPC-298): 84.4% | cell count (IST-MEL1): 99.8% | cell count (LB2518-MEL): 82.7% | cell count (LOXIMVI): 107% | cell count (MEL-HO): 74%

N#CC[C@H](C1CCCC1)n1cc(-c2ncnc3[nH]ccc23)cn1 [ruxolitinib] + CO[C@@H]1[C@H](N(C)C(=O)c2ccccc2)C[C@H]2O[C@]1(C)n1c3ccccc3c3c4c(c5c6ccccc6n2c5c31)C(=O)NC4 [Midostaurin] (first compound 1 µM, partner dose 0.08 µM)
cell count (COLO792): 89.6% | cell count (COLO800): 149% | cell count (COLO829): 83.1% | cell count (G361): 73.1% | cell count (IPC-298): 102% | cell count (IST-MEL1): 93% | cell count (LB2518-MEL): 104% | cell count (LOXIMVI): 73.5% | cell count (MEL-HO): 91.7%

Cc1cc(Nc2cc(N3CCN(C)CC3)nc(Sc3ccc(NC(=O)C4CC4)cc3)n2)n[nH]1 [Tozasertib] + COc1ccc(COc2ccc(Cc3cnc(N)nc3N)cc2OC)cc1 [GW2580] (first compound 0.006 µM, partner dose 1 µM)
cell count (COLO792): 98.4% | cell count (COLO800): 173% | cell count (COLO829): 115% | cell count (G361): 99% | cell count (IPC-298): 98.8% | cell count (IST-MEL1): 106% | cell count (LB2518-MEL): 90.2% | cell count (LOXIMVI): 78.5% | cell count (MEL-HO): 95.1%

Cc1cc(Nc2cc(N3CCN(C)CC3)nc(Sc3ccc(NC(=O)C4CC4)cc3)n2)n[nH]1 [Tozasertib] + O=C(O)C(=O)Nc1sc2c(c1C(=O)O)CCNC2 [TCS401] (first compound 0.006 µM, partner dose 1.66667 µM)
cell count (COLO792): 87% | cell count (COLO800): 81.8% | cell count (COLO829): 99.5% | cell count (G361): 96.5% | cell count (IPC-298): 101% | cell count (IST-MEL1): 105% | cell count (LB2518-MEL): 79.2% | cell count (LOXIMVI): 93.6% | cell count (MEL-HO): 96.7%

N#CC[C@H](C1CCCC1)n1cc(-c2ncnc3[nH]ccc23)cn1 [ruxolitinib] + Cn1cncc1[C@@](N)(c1ccc(Cl)cc1)c1ccc2c(c1)c(-c1cccc(Cl)c1)cc(=O)n2C [tipifarnib] (first compound 1 µM, partner dose 0.01 µM)
cell count (COLO792): 93% | cell count (COLO800): 102% | cell count (COLO829): 103% | cell count (G361): 95% | cell count (IPC-298): 104% | cell count (IST-MEL1): 102% | cell count (LB2518-MEL): 86.3% | cell count (LOXIMVI): 155% | cell count (MEL-HO): 89.3%

Cc1cc(Nc2cc(N3CCN(C)CC3)nc(Sc3ccc(NC(=O)C4CC4)cc3)n2)n[nH]1 [Tozasertib] + COC(=O)c1sccc1S(=O)(=O)Nc1ccc(Nc2ccccc2)cc1OC [GSK0660] (first compound 0.006 µM, partner dose 1 µM)
cell count (COLO792): 119% | cell count (COLO800): 78.4% | cell count (COLO829): 95.6% | cell count (G361): 98.9% | cell count (IPC-298): 98% | cell count (IST-MEL1): 109% | cell count (LB2518-MEL): 100% | cell count (LOXIMVI): 118% | cell count (MEL-HO): 92.5%

N#CC[C@H](C1CCCC1)n1cc(-c2ncnc3[nH]ccc23)cn1 [ruxolitinib] + COc1cc2ncnc(Nc3ccc(Oc4ccccc4)cc3)c2cc1OC [SrcI1] (first compound 1 µM, partner dose 2 µM)
cell count (COLO792): 104% | cell count (COLO800): 120% | cell count (COLO829): 126% | cell count (G361): 103% | cell count (IPC-298): 94.4% | cell count (IST-MEL1): 92.9% | cell count (LB2518-MEL): 133% | cell count (LOXIMVI): 91% | cell count (MEL-HO): 112%

Cc1cc(Nc2cc(N3CCN(C)CC3)nc(Sc3ccc(NC(=O)C4CC4)cc3)n2)n[nH]1 [Tozasertib] + CCCCCCCCCCCC1=C(O)C(=O)C=C(O)C1=O [Embelin] (first compound 0.006 µM, partner dose 1.2 µM)
cell count (COLO792): 95% | cell count (COLO800): 95.7% | cell count (COLO829): 94.8% | cell count (G361): 93.4% | cell count (IPC-298): 92.9% | cell count (IST-MEL1): 94.1% | cell count (LB2518-MEL): 85.8% | cell count (LOXIMVI): 80.6% | cell count (MEL-HO): 91.3%

Cc1cc(Nc2cc(N3CCN(C)CC3)nc(Sc3ccc(NC(=O)C4CC4)cc3)n2)n[nH]1 [Tozasertib] + COc1cc(N2CCC(N3CCN(C)CC3)CC2)ccc1Nc1ncc(Cl)c(Nc2ccccc2S(=O)(=O)C(C)C)n1 [NVP-TAE684] (first compound 0.006 µM, partner dose 0.08 µM)
cell count (COLO792): 95.6% | cell count (COLO800): 103% | cell count (COLO829): 94.4% | cell count (G361): 86.4% | cell count (IPC-298): 94.5% | cell count (IST-MEL1): 107% | cell count (LB2518-MEL): 86.4% | cell count (LOXIMVI): 87.6% | cell count (MEL-HO): 92.6%

N#CC[C@H](C1CCCC1)n1cc(-c2ncnc3[nH]ccc23)cn1 [ruxolitinib] + CC(C)(C)c1cnc(CSc2cnc(NC(=O)C3CCNCC3)s2)o1 [SNS-032] (first compound 1 µM, partner dose 0.01 µM)
cell count (COLO792): 96.5% | cell count (COLO800): 88.3% | cell count (COLO829): 126% | cell count (G361): 118% | cell count (IPC-298): 111% | cell count (IST-MEL1): 93.7% | cell count (LB2518-MEL): 122% | cell count (LOXIMVI): 62.4% | cell count (MEL-HO): 99%

Cc1cc(Nc2cc(N3CCN(C)CC3)nc(Sc3ccc(NC(=O)C4CC4)cc3)n2)n[nH]1 [Tozasertib] + NCC(=O)Nc1ccc(-n2nc(C(F)(F)F)cc2-c2ccc3c(ccc4ccccc43)c2)cc1 [OSU03012] (first compound 0.006 µM, partner dose 1 µM)
cell count (COLO792): 86.7% | cell count (COLO800): 107% | cell count (COLO829): 75.4% | cell count (G361): 109% | cell count (IPC-298): 97.5% | cell count (IST-MEL1): 96.1% | cell count (LB2518-MEL): 110% | cell count (LOXIMVI): 204% | cell count (MEL-HO): 102%

CC[C@]1(O)C[C@H]2CN(CCc3c([nH]c4ccccc34)[C@@](C(=O)OC)(c3cc4c(cc3OC)N(C=O)[C@H]3[C@@](O)(C(=O)OC)[C@H](OC(C)=O)[C@]5(CC)C=CCN6CC[C@]43[C@@H]65)C2)C1 [vincristine] + CO[C@@H]1[C@H](N(C)C(=O)c2ccccc2)C[C@H]2O[C@]1(C)n1c3ccccc3c3c4c(c5c6ccccc6n2c5c31)C(=O)NC4 [Midostaurin] (first compound 0.0001 µM, partner dose 0.08 µM)
cell count (COLO792): 88.9% | cell count (COLO800): 156% | cell count (COLO829): 78% | cell count (G361): 84.8% | cell count (IPC-298): 94.1% | cell count (IST-MEL1): 101% | cell count (LB2518-MEL): 91.3% | cell count (LOXIMVI): 86.4% | cell count (MEL-HO): 94%

Cc1cc(Nc2cc(N3CCN(C)CC3)nc(Sc3ccc(NC(=O)C4CC4)cc3)n2)n[nH]1 [Tozasertib] + Cc1ccc(NC(=O)c2cccc(N(C)C)c2)cc1NC(=O)c1ccc(O)cc1 [ZM336372] (first compound 0.006 µM, partner dose 2 µM)
cell count (COLO792): 102% | cell count (COLO800): 142% | cell count (COLO829): 93.5% | cell count (G361): 95.7% | cell count (IPC-298): 80.1% | cell count (IST-MEL1): 95.1% | cell count (LB2518-MEL): 78.2% | cell count (LOXIMVI): 148% | cell count (MEL-HO): 95.7%
